Experimental data as given in PubChem BioAssay AID504332 (National Center for Advancing Translational Sciences (NCATS), 2011).
Out of some 350,000 compounds screened, about 31,000 (8.9%) were called active. This list was built around the results that the source calls inconclusive (neither active nor inactive); the mix of calls is not that of the screen. Calls come from the whole dose curve; as a rule, active = well fitted inhibition curve with a large enough effect; inconclusive = small, poorly fitted or top-dose-only effect; inactive = no such curve, though single readings can be large or run the other way. Potencies of inconclusive entries are doubtful fits and often do not repeat.

Molecular target: Histone-lysine N-methyltransferase EHMT2 (Homo sapiens) (UniProt Q96KQ7)
Assay: qHTS Assay for Inhibitors of Histone Lysine Methyltransferase G9a; note: nearly all actives have a fitted effect of over 75% in size
Settings: G9a H3K9 monomethylation, AlphaScreen, 2 h; activity, negative = inhibition: at 59 µM (top of the series) unless noted
Procedure, shortened: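 G9a (20 nM) was preincubated 15 min with compound, then reacted 2 h at room temperature with 500 nM biotin-H3K9 peptide and 20 µM SAM. Monomethyl-H3K9 detected by AlphaScreen using anti-H3K9me1 antibody.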
% is set by controls: 0 for no effect and ±100 for the full control effect; potency is the fitted concentration of half-maximal effect; tags give direction and shape of the fitted curve.

Chain of UniProt Q96KQ7 (Q96KQ7 whole entry, looked up): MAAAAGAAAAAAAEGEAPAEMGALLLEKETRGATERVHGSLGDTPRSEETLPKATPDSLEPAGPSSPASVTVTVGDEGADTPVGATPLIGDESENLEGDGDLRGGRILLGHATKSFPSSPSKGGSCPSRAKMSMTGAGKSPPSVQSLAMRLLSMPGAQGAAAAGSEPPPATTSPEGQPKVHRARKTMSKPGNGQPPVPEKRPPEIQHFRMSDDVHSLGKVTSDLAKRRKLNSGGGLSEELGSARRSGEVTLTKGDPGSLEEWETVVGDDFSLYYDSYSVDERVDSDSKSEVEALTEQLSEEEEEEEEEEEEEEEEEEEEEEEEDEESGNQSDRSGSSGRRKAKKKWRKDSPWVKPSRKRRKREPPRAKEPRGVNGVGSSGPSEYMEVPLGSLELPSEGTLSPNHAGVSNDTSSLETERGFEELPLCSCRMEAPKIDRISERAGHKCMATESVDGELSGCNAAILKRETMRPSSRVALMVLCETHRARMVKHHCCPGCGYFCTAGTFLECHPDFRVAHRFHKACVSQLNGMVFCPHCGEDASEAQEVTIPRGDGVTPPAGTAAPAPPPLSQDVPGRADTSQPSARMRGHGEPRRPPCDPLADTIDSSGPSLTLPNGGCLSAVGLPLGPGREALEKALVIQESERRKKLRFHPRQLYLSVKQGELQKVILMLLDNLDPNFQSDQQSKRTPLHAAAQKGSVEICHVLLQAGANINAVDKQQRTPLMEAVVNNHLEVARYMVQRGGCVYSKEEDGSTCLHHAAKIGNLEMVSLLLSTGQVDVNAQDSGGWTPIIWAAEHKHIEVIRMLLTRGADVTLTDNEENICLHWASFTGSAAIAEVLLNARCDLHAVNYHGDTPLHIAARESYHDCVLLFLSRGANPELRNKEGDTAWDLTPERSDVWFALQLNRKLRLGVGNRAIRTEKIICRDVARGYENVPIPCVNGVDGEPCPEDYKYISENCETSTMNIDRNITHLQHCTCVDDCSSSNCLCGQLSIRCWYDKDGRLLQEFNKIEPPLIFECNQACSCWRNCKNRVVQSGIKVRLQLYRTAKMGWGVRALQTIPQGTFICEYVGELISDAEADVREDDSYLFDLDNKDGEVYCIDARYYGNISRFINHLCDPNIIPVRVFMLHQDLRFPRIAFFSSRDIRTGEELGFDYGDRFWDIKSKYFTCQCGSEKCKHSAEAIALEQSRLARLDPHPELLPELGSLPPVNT

Row | SMILES | Potency | activity, negative = inhibition
1 | Cn1c(N)c(C(=O)COC(=O)c2cc(C(F)(F)F)nc3ccccc23)c(=O)n(Cc2ccccc2)c1=O | inconclusive: 70.8 µM [inhibitor, single point] | –
2 | NNC(=O)CCC(=O)Nc1ccccc1 | inconclusive: 44.7 µM [inhibitor, partial curve, poor fit] | –
3 | O=C1C=C(c2ccccc2)C(=O)N1Nc1ccccc1 | active: 8.91 µM | –
4 | O=C1NC2=C(C(=O)CCC2)C(c2ccc(OC(F)F)cc2)N1 (configuration not stated) | inconclusive: 89.1 µM [inhibitor, partial curve, poor fit] | –
5 | Nc1ccc(/C=C/c2ccc3ncccc3c2)cc1 | inconclusive: 3.16 µM [inhibitor, full curve, poor fit] | –
6 | O=C(Nc1ccccc1)O/N=C(\c1ccccc1)c1ccccn1 | inconclusive: 1.78 µM [inhibitor, full curve, poor fit] | –
7 | CCOC(=O)c1c(/N=C/c2ccc(O)cc2O)sc2c1CCC2 | inactive | –
8 | COc1ccc(OCC(O)Cn2c(Br)nc3c2c(=O)[nH]c(=O)n3C)cc1 (configuration not stated) | inconclusive: 89.1 µM [inhibitor, single point] | –
9 | CC1=C(C(=O)OCc2ccc3c(c2)OCO3)C(c2ccccc2)NC(=O)N1 (configuration not stated) | inconclusive: 17.8 µM [inhibitor, partial curve] | –
10 | CCc1nnc(NC(=O)c2ccc(COc3ccc(C)cc3)o2)s1 | inconclusive: 56.2 µM [inhibitor, partial curve, poor fit] | –
11 | CCC(C)(C)N1CC(=O)N(Cc2ccccc2)C(c2ccc(OC)cc2)C1=O (configuration not stated) | inconclusive: 89.1 µM [inhibitor, partial curve, poor fit] | –
12 | O=C(CSCc1ccccc1Cl)NCc1ccc(Cl)c(Cl)c1 | inconclusive: 3.55 µM [inhibitor, single point] | –
13 | CCN(CC)c1ccc(NC(=O)CN2CCN(CC(=O)Nc3ccccc3F)CC2)cc1 | inconclusive: 2 µM [inhibitor, partial curve, poor fit] | –
14 | CCCCN(C(=S)SC)C1CCS(=O)(=O)C1 (configuration not stated) | inconclusive: 89.1 µM [inhibitor, partial curve, poor fit] | –
15 | Cn1c(N2CCOCC2)c(/C=N/OC(=O)c2cccnc2Cl)c2ccccc21 | – | inconclusive: -86.9% [inhibitor]
16 | CCCN(CCC)CCN1C(=O)C2C(C(=O)Nc3cccc(SC)c3)C3C=CC2(O3)C1C(=O)NC1CCCCC1 (configuration not stated) | inconclusive: 89.1 µM [inhibitor, single point] | –
17 | CCN(Cc1ccccc1)C(=O)c1[nH]c2ccc(OC)cc2c1C | inactive | –
18 | Nc1nnc(SCC(=O)N2CCN(c3ccccc3)CC2)s1 | active: 50.1 µM | –
19 | CCN(CC)Cc1c(C(=O)N/N=C/c2cccc(OCc3cccc(Cl)c3)c2)nnn1-c1nonc1N | inconclusive: 89.1 µM [inhibitor, single point] | –
20 | Cc1ccc(C)n1-c1cccc(S(=O)(=O)N2CCOCC2)c1 | inactive | –
21 | Cn1nc(C(=O)Nc2cc(Cl)ccc2N2CCCC2)c2ccccc2c1=O | inconclusive: 3.16 µM [inhibitor, single point] | –

Row | SMILES | Potency | activity, negative = inhibition
22 | O=C(C(Cl)Cl)N1c2ccccc2OCC1c1ccccc1 (configuration not stated) | – | inconclusive: -67.4% [inhibitor] [at 12.7 µM]
23 | CCn1c(SC2CCOC2=O)nnc1-c1ccc(Cl)cc1 (configuration not stated) | inconclusive: 44.7 µM [inhibitor, partial curve] | –
24 | CCOc1ccc(S(=O)(=O)N(C(=O)c2ccco2)c2cc3sc(=O)oc3c3ccccc23)cc1 | active: 1.41 µM | –
25 | C/C(CC(=O)Nc1ccc2ccccc2c1)=N\NC(=O)c1ccc(O)c(O)c1 | inconclusive: 2.51 µM [inhibitor, full curve] | –
26 | O=C(O)c1ccc(N/N=C/c2cc3c(cc2[N+](=O)[O-])OCO3)cc1 | inconclusive: 39.8 µM [inhibitor, partial curve, poor fit] | –
27 | Cc1ccc(C(=O)OCc2ccc3c(c2)OCO3)cc1S(=O)(=O)N1CCCCC1 | inactive | –
28 | CN(C)c1ccc(NC2=C([N+](=O)[O-])CS(=O)(=O)C2)cc1 | inconclusive: 3.55 µM [inhibitor, partial curve, poor fit] | –
29 | CCC(N1CCOC1=O)S(=O)(=O)c1ccc(C)cc1 (configuration not stated) | inconclusive: 3.16 µM [inhibitor, single point] | –
30 | CC(=O)C(/C=N/c1cc(-c2ccc(C)cc2)nn1-c1ccccc1)=C(\C)O | inconclusive: 2 µM [inhibitor, partial curve, poor fit] | –
31 | CCOc1ccccc1Nc1nc(-c2ccc(C)cc2)c(CC(=O)O)s1 | active: 7.94 µM | –
32 | Cc1cc(C(=O)OCC(=O)NC2CCC(C)CC2)c(C)o1 (configuration not stated) | inconclusive: 0.891 µM [inhibitor, single point] | –
33 | COc1ccc(CCN=c2c([N+](=O)[O-])nn(-c3cccc(C)c3)n2O)cc1OC | inconclusive: 56.2 µM [inhibitor, single point] | –
34 | CNC(=S)Nc1ccc2[nH]c(=O)[nH]c2c1 | – | inconclusive: -51.9% [inhibitor]
35 | COc1ccc(NC(=S)N(Cc2cccc(Br)c2)CC2CCC(C(=O)O)CC2)cc1 (configuration not stated) | inconclusive: 39.8 µM [inhibitor, partial curve, poor fit] | –
36 | CN(c1ccccc1)S(=O)(=O)c1cccc(C(=O)Nc2ncn[nH]2)c1 | inactive | –
37 | Cc1cccc(C)c1NC(=O)CCS(=O)(=O)c1ccc2c(c1)CC(C)N2C(=O)C1CC1 (configuration not stated) | inactive | –
38 | CC1CN(C(=O)c2ccc(S(=O)(=O)Nc3ccccc3F)cc2)CC(C)O1 (configuration not stated) | inactive | –
39 | CCC(=O)Nc1nnc(SCC(=O)N2c3ccccc3CC2C)s1 (configuration not stated) | inactive | –
40 | COc1ccc(C(=O)CSc2nnc(CNC(=O)c3ccc(OC)cc3)n2C)cc1 | – | inconclusive: -93.5% [inhibitor]
41 | Cc1ccc(S(=O)(=O)N2CCC(=O)N(CCOCc3ccc(F)cc3)CC2)cc1 | inconclusive: 100 µM [inhibitor, single point] | –
42 | O=C(NCC(=O)N1CCN(c2ccccc2O)CC1)c1cccs1 | inconclusive: 56.2 µM [inhibitor, partial curve, poor fit] | –
